Data reported in PubChem BioAssay AID504332 (National Center for Advancing Translational Sciences (NCATS), 2011).
Screen size: about 350,000 compounds; about 31,000 (8.9%) were called active. The shares of active, inactive and inconclusive entries below differ from those in the screen. Calls come from the whole dose curve; as a rule, active = well fitted inhibition curve with a large enough effect; inconclusive = small, poorly fitted or top-dose-only effect; inactive = no such curve, though single readings can be large or run the other way. Potencies beside an inconclusive call are fits to weak or partial responses and may not hold up.

molecular target: Histone-lysine N-methyltransferase EHMT2 (Homo sapiens) (UniProt Q96KQ7); assay: qHTS Assay for Inhibitors of Histone Lysine Methyltransferase G9a; conditions: G9a H3K9 monomethylation, AlphaScreen, 2 h; activity, negative = inhibition: at 59 µM (top of the series) unless noted; note: nearly all actives have a fitted effect of over 75% in size
Chain of UniProt Q96KQ7 (Q96KQ7 whole entry, looked up): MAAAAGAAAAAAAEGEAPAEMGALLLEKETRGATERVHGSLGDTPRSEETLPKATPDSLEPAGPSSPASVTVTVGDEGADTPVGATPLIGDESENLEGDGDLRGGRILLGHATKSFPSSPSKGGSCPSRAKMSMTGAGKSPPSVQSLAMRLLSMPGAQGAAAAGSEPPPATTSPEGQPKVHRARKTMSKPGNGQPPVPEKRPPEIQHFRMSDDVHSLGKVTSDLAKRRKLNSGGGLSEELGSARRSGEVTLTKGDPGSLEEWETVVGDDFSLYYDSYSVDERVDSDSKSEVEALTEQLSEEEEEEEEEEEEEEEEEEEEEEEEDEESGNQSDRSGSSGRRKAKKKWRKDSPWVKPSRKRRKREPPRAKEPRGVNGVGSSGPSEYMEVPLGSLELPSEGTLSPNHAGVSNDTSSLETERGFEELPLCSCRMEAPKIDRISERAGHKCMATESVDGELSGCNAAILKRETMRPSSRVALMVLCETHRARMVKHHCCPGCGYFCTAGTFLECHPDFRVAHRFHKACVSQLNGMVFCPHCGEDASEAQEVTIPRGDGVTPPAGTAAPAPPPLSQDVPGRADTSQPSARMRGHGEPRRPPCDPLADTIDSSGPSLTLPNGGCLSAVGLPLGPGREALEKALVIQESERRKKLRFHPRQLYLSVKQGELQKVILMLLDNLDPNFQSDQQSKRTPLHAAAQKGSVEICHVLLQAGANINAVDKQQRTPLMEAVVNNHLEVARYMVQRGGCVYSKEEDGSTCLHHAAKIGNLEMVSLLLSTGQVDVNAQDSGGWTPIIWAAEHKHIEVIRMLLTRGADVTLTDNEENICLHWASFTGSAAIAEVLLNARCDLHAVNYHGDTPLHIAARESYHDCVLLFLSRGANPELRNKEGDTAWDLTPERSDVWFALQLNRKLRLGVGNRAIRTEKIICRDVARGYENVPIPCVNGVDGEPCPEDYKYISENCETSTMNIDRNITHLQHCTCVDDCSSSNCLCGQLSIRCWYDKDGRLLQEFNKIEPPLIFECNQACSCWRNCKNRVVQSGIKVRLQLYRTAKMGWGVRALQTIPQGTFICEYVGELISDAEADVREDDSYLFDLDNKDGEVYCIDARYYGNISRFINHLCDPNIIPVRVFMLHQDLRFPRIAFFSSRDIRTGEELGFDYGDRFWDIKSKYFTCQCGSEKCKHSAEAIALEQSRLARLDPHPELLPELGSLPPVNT
Procedure, shortened: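 Enzyme 20 nM + cpd, 15 min RT; add b-H3K9 pep 500 nM / SAM 20 uM; 2 h RT; anti-H3K9me1 Ab 0.5 ug/mL + SA donor / anti-rabbit acceptor beads 20 ug/mL each, 10 min; AlphaScreen read.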
% is set by controls: 0 for no effect and ±100 for the full control effect; potency is the fitted concentration of half-maximal effect; tags give direction and shape of the fitted curve.

Row | Structure (SMILES) | Potency | activity, negative = inhibition
1 | Cc1ccc(-c2noc(C3CCN(S(=O)(=O)c4ccc5c(c4)OCCO5)CC3)n2)o1 | active: 15.8 µM | –
2 | COc1ccc(CNC(=O)C2CCCN(C(=O)Nc3ccccc3OC)C2)cc1 (configuration not stated) | inconclusive: 39.8 µM [inhibitor, single point] | –
3 | COc1ccccc1NC(=O)N1CCN(c2ncccn2)CC1 | – | inactive: 26.9% [at 12.7 µM]
4 | O=S(=O)(c1ccc(F)cc1)N1CCN(CC2CC3C=CC2C3)CC1 (configuration not stated) | active: 22.4 µM | –
5 | CCOC(=O)c1c(-c2cccc(N)c2)cn2ccccc12 | inconclusive: 50.1 µM [inhibitor, partial curve] | –
6 | O=C(N/N=C/c1sc(=O)[nH]c1-[n+]1ccc2ccccc2c1)c1ccccc1[O-] | inconclusive: 70.8 µM [inhibitor, single point] | –
7 | NC(N)=NCC(O)CN(c1ccccc1)c1ccccc1 (configuration not stated) | inconclusive: 56.2 µM [inhibitor, partial curve] | –
8 | COc1ccc(NC2CCCN(C(=O)C3(C)CCCCC3)C2)cc1OC (configuration not stated) | inconclusive: 89.1 µM [inhibitor, single point] | –
9 | Cn1c(CCN2CCCCC2)nc2cc(NC(=O)COc3ccc([N+](=O)[O-])cc3)ccc21 | inconclusive: 89.1 µM [inhibitor, single point] | –
10 | Cc1ccc(CS(=O)(=O)Cc2ccc(C(=O)NCCc3ccc(Cl)cc3)o2)cc1 | inactive | –
11 | O=C(c1cccc(NS(=O)(=O)c2ccc(Br)cc2)c1)N1CCN(c2ccccc2O)CC1 | active: 50.1 µM | –
12 | CC(=O)Nc1ccc(S(=O)(=O)/N=C2\C(=O)c3ccccc3C([O-])=C2n2cc[n+](-c3ccccn3)c2)cc1 | inconclusive: 44.7 µM [inhibitor, partial curve, poor fit] | –
13 | CCN(CCCNC(=O)C1CCN(S(=O)(=O)c2cnc[nH]2)CC1)c1cccc(C)c1 | inconclusive: 89.1 µM [inhibitor, partial curve, poor fit] | –
14 | Oc1ccccc1N1CCN(Cc2ncc(-c3ccccc3)o2)CC1 | inconclusive: 79.4 µM [inhibitor, partial curve, poor fit] | –
15 | S=C(NCCN(C1CCCCC1)C1CCCC1)Nc1cccc(Cl)c1 | inconclusive: 56.2 µM [inhibitor, partial curve, poor fit] | –
16 | O=C(O)c1cc(S(=O)(=O)N2CCN(C(c3ccccc3)c3ccccc3)CC2)ccc1Cl | inconclusive: 89.1 µM [inhibitor, single point] | –
17 | COc1ccc(N2C(=O)CC(N3CCN(c4ccc(S(=O)(=O)N5CCCC5)cc4)CC3)C2=O)cc1 (configuration not stated) | inconclusive: 31.6 µM [inhibitor, single point] | –
18 | COc1ccc2c(c1OC)C(=O)OC2Nc1nc(-c2cc3ccccc3oc2=O)cs1 (configuration not stated) | inconclusive: 39.8 µM [inhibitor, single point] | –
19 | CCC12CN3CC(CC)(CN(C1)C3c1ccc(OCc3ccccc3)cc1)C2=O (configuration not stated) | inactive | –
20 | CCn1c(N)c(C(=O)NCCCOC)sc1=S | active: 28.2 µM | –
21 | CC(=O)Nc1ccc(S(=O)(=O)N2CCN(Cc3csc(C)n3)CC2)cc1 | inactive | –
22 | S=C(NCCc1ccccc1)N1CCN(Cc2ccccc2)CC1 | inconclusive: 15.8 µM [inhibitor, partial curve, poor fit] | –
23 | Cc1ccc(CNC(=O)CCS(=O)(=O)c2ccc(Cl)cc2)cc1 | inactive | –

Row | Structure (SMILES) | Potency | activity, negative = inhibition
24 | Cc1ccccc1NC(=O)Cc1nnc(SCC(=O)NC2=NCCS2)n1C | inconclusive: 79.4 µM [inhibitor, single point] | –
25 | COc1cccc(CNC(=O)C(=O)NCC2OCCCN2S(=O)(=O)c2cc(C)ccc2C)c1 (configuration not stated) | inactive | –
26 | CCn1c(SCC(=O)Nc2ccc3c(c2)OCCO3)nnc1-c1ccco1 | – | inactive: -39.6% [at 12.7 µM]
27 | COc1ccc(Br)cc1CN1CCN(C(=O)c2cccc(OC)c2OC)CC1 | inconclusive: 11.2 µM [inhibitor, full curve, poor fit] | –
28 | CC/C=C\[C@H](O)[C@H](O)C1=C(C)C(=O)[C@]2(O1)C(=O)N[C@@](OC)(C(=O)c1ccccc1)C2O (some centres not stated) | – | inconclusive: -56.8% [inhibitor]
29 | Brc1csc(/C=N/Nc2nc3ccccc3s2)c1 | inactive | –
30 | COc1ccc(NC(=O)c2cnc(SC)n2-c2ccc(F)cc2)c(OC)c1 | inconclusive: 70.8 µM [inhibitor, single point] | –
31 | CCOC(=O)c1nn(C)c(C)c1Cl | inactive | –
32 | COc1ccc(N2C(=O)c3ccccc3NC2c2ccccc2O)cc1 (configuration not stated) | inconclusive: 89.1 µM [inhibitor, single point] | –
33 | O=C(CCNC(=O)c1ccc([N+](=O)[O-])cc1)NCCc1ccc(Cl)cc1 | inconclusive: 89.1 µM [inhibitor, partial curve, poor fit] | –
34 | CCC(=O)N1CCc2cc(S(=O)(=O)CCC(=O)N3CCc4ccccc4C3)ccc21 | inconclusive: 39.8 µM [inhibitor, partial curve, poor fit] | –
35 | COc1ccc(N2CCN(c3nc4c(c(=O)n(C)c(=O)n4C)n3Cc3ccccc3)CC2)cc1 | – | inactive: -49.4% [at 12.7 µM]
36 | O=C(NC(NC(=S)Nc1cccc(C(=O)O)c1)C(Cl)(Cl)Cl)OCc1ccccc1 (configuration not stated) | inconclusive: 7.94 µM [inhibitor, partial curve, poor fit] | –
37 | CC(=O)NN1C(=O)/C(=C\c2ccc(Br)o2)SC1=S | active: 39.8 µM | –
38 | COc1ccc(N)cc1-n1cnnn1 | inconclusive: 50.1 µM [inhibitor, partial curve, poor fit] | –
39 | COc1cc(C2c3c(oc4ccccc4c3=O)C(=O)N2c2nccs2)ccc1O (configuration not stated) | inconclusive: 0.794 µM [inhibitor, full curve, poor fit] | –
40 | COc1ccc(N2CCN(C(c3ccccc3)c3nnc(-c4ccccc4Cl)o3)CC2)cc1 (configuration not stated) | active: 12.6 µM | –
41 | CCC(C)(C)NC(=O)Cc1ccccc1OC | inconclusive: 89.1 µM [inhibitor, single point] | –
42 | Cn1c(=O)[nH]c(=O)c2c1nc(N1CCN(c3cccc(Cl)c3)CC1)n2CCCc1ccccc1 | active: 17.8 µM | –
43 | COc1cc(SC)ccc1C(=O)Nc1ccon1 | – | inconclusive: -57.7% [inhibitor]
44 | O=C1C2CCCN2C(c2ccccc2)N1c1ccc(F)cc1 (configuration not stated) | inactive | –
45 | COC(=O)/C=C1\S/C(=N/N=C/c2ccccc2)NC1=O | inconclusive: 79.4 µM [inhibitor, single point] | –
46 | Cc1[nH][nH]c(=O)c1C(c1ccc(-c2ccc(Cl)cc2)o1)c1c(C)[nH][nH]c1=O | inconclusive: 0.891 µM [inhibitor, single point] | –

Row | Structure (SMILES) | Potency | activity, negative = inhibition
47 | CCN(CC)CCN1C(=O)C(=O)/C(=C(/O)c2c(C)[nH]c(C(=O)OC)c2C)C1c1ccc(OC)cc1 (configuration not stated) | active: 79.4 µM | –
48 | CC(NS(=O)(=O)OCC(Cl)(Cl)Cl)c1ccc(C(C)(C)C)cc1 (configuration not stated) | inactive | –
49 | COc1cccc(CNC(=O)c2c(O)nc3ccccn3c2=O)c1 | inconclusive: 25.1 µM [inhibitor, single point] | –
50 | COc1cc(C(=O)N/N=C/c2coc3ccccc3c2=O)cc(OC)c1OC | inconclusive: 70.8 µM [inhibitor, partial curve, poor fit] | –
51 | C(=N\N1CCN(Cc2cccc3ccccc23)CC1)/c1ccco1 | active: 39.8 µM | –
52 | CCCC(=O)N1CCN(c2ccc(NC(=O)C(C)(C)C)cc2Cl)CC1 | inconclusive: 0.501 µM [inhibitor, partial curve, poor fit] | –
53 | Cc1ccc(C)c(N2CCN(C(=O)c3ccc4c(Cl)c5c(nc4c3)CCCC5)CC2)c1 | inconclusive: 39.8 µM [inhibitor, partial curve, poor fit] | –
54 | COc1cc2c(cc1NC(=O)c1cccc(F)c1)CCCC2 | inconclusive: 0.891 µM [inhibitor, partial curve, poor fit] | –
55 | COc1cc(NS(=O)(=O)c2ccc(NC(=O)c3ccc(S(=O)(=O)N4CCCCC4)cc3)cc2)ncn1 | inconclusive: 50.1 µM [inhibitor, partial curve, poor fit] | –
56 | CC(C)NC[C@@H](O)COc1cccc2ccccc12 | inactive | –
57 | COc1cccc(C(C(=O)NC2CCCC2)N(C(=O)c2ccco2)c2ccc(C(C)=O)cc2)c1OC (configuration not stated) | inactive | –
58 | COc1cc(-c2noc(-c3ccc(NCCc4ccccc4)c([N+](=O)[O-])c3)n2)cc(OC)c1OC | inactive | –
59 | c1ccc(-c2nnc3n2N=C(c2ccc4c(c2)OCO4)CS3)nc1 | inconclusive: 39.8 µM [inhibitor, single point] | –
60 | NC1=NN(c2cccc(C(=O)O)c2)C(=O)C1 | inconclusive: 0.708 µM [inhibitor, full curve, poor fit] | –
61 | Cc1nc2ccccc2n1S(=O)(=O)c1ccc(S(=O)(=O)N2CCCCCC2)cc1 | inconclusive: 89.1 µM [inhibitor, partial curve, poor fit] | –
62 | COC(=O)c1ccccc1NCc1cc(=O)oc2cc(O)c(O)cc12 | inconclusive: 89.1 µM [inhibitor, single point] | –
63 | CC1(C)Cc2c(C#N)c(NCc3ccco3)nc(-c3ccco3)c2CO1 | inconclusive: 22.4 µM [inhibitor, single point] | –
64 | CC(/C=N/Nc1ccc2nncn2n1)=C\c1ccccc1 | inactive | –
65 | COc1ccc(Cl)cc1NC(=S)NCCc1ccc(F)cc1 | inactive | –
66 | CCOc1ccc(/C(O)=C2/C(=O)C(=O)N(CCCN3CCOCC3)C2c2ccc(F)cc2)cc1C (configuration not stated) | inconclusive: 89.1 µM [inhibitor, single point] | –
67 | COc1ccc(S(=O)(=O)N2CCc3ccccc32)cc1C(=O)N(CC(C)C)C1CCS(=O)(=O)C1 (configuration not stated) | inconclusive: 89.1 µM [inhibitor, single point] | –
